Reference: PubChem BioAssay AID2546 (National Center for Advancing Translational Sciences (NCATS), 2010)
Among all 310,000 compounds or so, about 11,000 (3.5%) were called active. Inconclusive means that the source gave no clear call. Such entries were picked first, then a sample of the others. Calls follow the shape of the dose curve; as a rule, active = well fitted inhibition curve with a large enough effect; inconclusive = small, poorly fitted or top-dose-only effect, or effect the other way; inactive = flat fitted curve, though single readings scatter. Potencies of inconclusive entries are left out as doubtful fits.

Assay: VP16 counterscreen qHTS for inhibitors of ROR gamma transcriptional activity;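 also: Gal4-VP16 expression switched on by copper sulfate through the metallothionein promoter; nearly all actives have a fitted effect of over 50% in size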
Conditions: Drosophila S2 Gal4-VP16 UAS-luciferase, luminescence, 20 h; activity, negative = inhibition: at 53.6 µM (top of the series)
% is scaled to controls: 0 for no effect and ±100 for the full control effect; potency is read from the fitted curve at half-maximal effect; tags tell the direction and shape of the fitted curve.

Compound	Potency	activity, negative = inhibition
COc1ccc2nc(NC(=O)c3ccc(NS(=O)(=O)c4cccs4)cc3)sc2c1	inconclusive [activator, single point]	–
COc1cccc(NC(=O)Nc2nc(SC(C)(C)C)ns2)c1	inconclusive [inhibitor, single point]	–
Cc1ccnc(NC(=S)N2CCN(c3cccc(C(F)(F)F)c3)CC2)c1	active: 0.562 µM	–
Cc1cccc(OCC(=O)NCC(=O)N/N=C/c2cc(Br)cc(Br)c2O)c1	active: 6.31 µM	–
Cc1ccc(SCc2cn3ccccc3n2)cc1	inconclusive [inhibitor, single point]	–
CC1CCCCC1NC(=S)Nc1ccc(SC(F)F)cc1 (configuration not stated)	active: 11.2 µM	–
COc1ccc(NC(=O)/C(C#N)=C\c2ccc(N3CCOCC3)o2)cc1	inconclusive [inhibitor, single point]	–
O=C(NC(=S)Nc1ccc2c(c1)OCCO2)c1ccccc1	inconclusive [inhibitor, single point]	–
CS(=O)(=O)N1CCC[C@@]2(CCN(C(c3ccccc3)c3ccccc3)C2)C1	–	inactive: 1.02%
CCC(C)NC(=O)CSc1nnc(-c2ccc(C(C)(C)C)cc2)n1C (configuration not stated)	inconclusive [inhibitor, single point]	–
COc1ccc(C)cc1NC(=O)CSc1nnc(COc2ccc(Cl)cc2)n1Cc1ccco1	inconclusive [inhibitor, partial curve, poor fit]	–
COc1cc(OC)cc(C(=O)NCC(=O)Nc2ccc(-c3ccccc3)cc2)c1	–	inactive: -0.0597%
O=C(c1cc(-c2ccc(Cl)cc2)on1)N1CCOCC1	inconclusive [inhibitor, single point]	–
CCN1CCN(c2nc3ccccn3c(=O)c2C=O)CC1	–	inactive: -9.33%
CCN(CC)S(=O)(=O)c1ccc2oc(Nc3ccc4c(c3)OCCO4)nc2c1	inconclusive [activator, single point]	–
COc1ccc(CSCC(=O)Nc2ccccc2SC)cc1	inconclusive [activator, single point]	–
CCOC(=O)C1CCN(C(=O)COC(=O)c2ccc3c(c2)C(=O)N(c2ccc(OCC)cc2)C3=O)CC1	inconclusive [inhibitor, partial curve, poor fit]	–
COc1ccccc1NC(=S)NCc1ccc2c(c1)OCO2	inconclusive [inhibitor, single point]	–
CC(C(=O)Nc1cccnc1)N1C(=O)C2C3C=CC(C3)C2C1=O (configuration not stated)	–	inactive: -5.29%
O=c1ccn(-c2cccc(C(F)(F)F)c2)nc1-c1ccn(-c2cccc(Cl)c2)n1	–	inactive: -5.42%
COc1ccccc1C(=O)NNC(=O)c1nn(Cc2ccccc2)c(=O)c2ccccc12	inconclusive [inhibitor, single point]	–
Cc1cc(C)nc(NS(=O)(=O)c2ccc(NC(=S)NC(=O)c3ccco3)cc2)n1	–	inactive: 15.5%
COc1ccc(C)cc1Nc1n[n+](-c2ccccc2)c(-c2cc(OC)c(OC)cc2Br)s1	inconclusive [inhibitor, single point]	–
Cc1cccc(NC(=O)c2cn(-c3ccccc3)nc2-c2ccccc2)c1	–	inactive: -3.86%

Compound	Potency	activity, negative = inhibition
COc1cc2oc(=O)cc(-c3ccc(-c4cccc(N)c4)cc3)c2c(OC)c1OC	–	inactive: 7.31%
O=C(CCCN1C(=O)/C(=C/c2cccs2)SC1=S)NNC(=O)c1ccccc1O	inconclusive [inhibitor, partial curve, poor fit]	–
O=C(CC12CC3CC(CC(C3)C1)C2)NC(Cc1ccccc1)C(=O)O (configuration not stated)	–	inactive: 1.86%
O=[N+]([O-])c1ccc(/C=N/NC(=S)Nc2ccccc2C(F)(F)F)o1	inconclusive [inhibitor, single point]	–
COc1ccc(C(=O)N(O)c2ccccc2)cc1	inconclusive [inhibitor, single point]	–
COc1ccc(NC(=O)c2ccc(OC)cc2)cc1	inconclusive [inhibitor, full curve]	–
CN(C)c1ccc(/C=N/NC(=O)c2ccc(Cn3cc(Br)cn3)o2)cc1	inconclusive [inhibitor, single point]	–
C/C(CCN1CCCCc2nc(C)c(C)cc21)=N\OC[C@@H](C)[C@H](OCc1ccccc1)C(C)C	–	inactive: 6.52% [at 10 µM]
CC1CCN(c2nc(-c3ccccc3)c(C#N)c(=O)[nH]2)CC1	–	inactive: 6.11%
Cc1csc(NC(=O)NCC2CCCC(CNC(=O)Nc3nc(C)cs3)C2)n1 (configuration not stated)	–	inactive: 0.191%
O=C(CSc1nnc(Cn2nnc3ccccc32)o1)N(Cc1ccc(F)cc1)c1ccccc1	inconclusive [inhibitor, single point]	–
O=C(Nc1ccc(S(=O)(=O)NC2CCCCC2)cc1)c1ccc(Br)o1	inconclusive [inhibitor, single point]	–
Cc1cccc(NC(=O)c2ccc3c(c2)OCCO3)c1	inconclusive [inhibitor, single point]	–
C/C(=N\NC(=O)c1ccc(O)cc1O)c1cccnc1	inconclusive [inhibitor, full curve]	–
O=C(C(Cl)c1ccccc1)N1CCOCC1 (configuration not stated)	–	inactive: -11.8%
COC(=O)CCCCC1SCC(NC(=O)c2ccccc2)C1=O (configuration not stated)	inconclusive [inhibitor, partial curve]	–
Cc1ccc(NC(=O)ON=C2CCCC2)cc1	inconclusive [inhibitor, single point]	–
O=C(NCc1ccccn1)c1cc2c(ccc3ccccc32)oc1=O	inconclusive [inhibitor, single point]	–
Cc1cc(C(=O)CSc2nc(N)cc(=O)[nH]2)c(C)n1-c1ccc(OC(F)F)cc1	active: 10 µM	–
COc1cccc(-c2nc(NCc3ccccc3OC)c3ccccc3n2)c1	–	inactive: -0.159%
CCOc1ccccc1NC(=O)c1nc[nH]c1C(=O)Nc1ccccc1OCC	active: 3.98 µM	–
COCCNC(=O)c1ccc2c(c1)NC(=O)CS2	–	inactive: -14.1%
COc1ccc(/C=C/C(=O)Oc2ccc(C)cc2)cc1	inconclusive [inhibitor, partial curve]	–
